These results are taken from article PMC10514306, “The CBL1/9-CIPK1 calcium sensor negatively regulates drought stress by phosphorylating the PYLs ABA receptor” (Nature Communications, 2023).

The chains behind the UniProt entries cited, without tags or fusion partners.
UniProt P05804: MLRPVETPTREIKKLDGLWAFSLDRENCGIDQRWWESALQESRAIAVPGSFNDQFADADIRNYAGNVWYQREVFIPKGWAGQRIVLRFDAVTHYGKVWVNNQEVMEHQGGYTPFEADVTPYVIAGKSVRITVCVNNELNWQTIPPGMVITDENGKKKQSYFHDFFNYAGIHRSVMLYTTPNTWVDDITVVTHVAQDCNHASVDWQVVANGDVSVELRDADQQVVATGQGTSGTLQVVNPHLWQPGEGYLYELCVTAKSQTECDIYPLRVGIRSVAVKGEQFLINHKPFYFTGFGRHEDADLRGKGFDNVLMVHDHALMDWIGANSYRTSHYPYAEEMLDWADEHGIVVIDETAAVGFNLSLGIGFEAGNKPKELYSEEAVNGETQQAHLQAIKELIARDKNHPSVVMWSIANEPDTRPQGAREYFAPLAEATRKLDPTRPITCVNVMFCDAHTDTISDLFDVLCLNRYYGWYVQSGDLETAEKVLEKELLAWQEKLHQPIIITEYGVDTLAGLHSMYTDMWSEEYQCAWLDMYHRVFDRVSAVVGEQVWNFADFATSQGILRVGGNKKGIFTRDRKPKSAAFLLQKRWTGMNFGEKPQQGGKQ
UniProt Q8VZS8: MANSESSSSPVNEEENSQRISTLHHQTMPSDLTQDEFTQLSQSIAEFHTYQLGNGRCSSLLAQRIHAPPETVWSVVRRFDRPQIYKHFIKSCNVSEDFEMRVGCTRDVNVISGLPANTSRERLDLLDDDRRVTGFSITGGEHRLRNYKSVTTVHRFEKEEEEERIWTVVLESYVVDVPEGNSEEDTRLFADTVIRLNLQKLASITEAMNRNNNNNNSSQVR
UniProt O49686: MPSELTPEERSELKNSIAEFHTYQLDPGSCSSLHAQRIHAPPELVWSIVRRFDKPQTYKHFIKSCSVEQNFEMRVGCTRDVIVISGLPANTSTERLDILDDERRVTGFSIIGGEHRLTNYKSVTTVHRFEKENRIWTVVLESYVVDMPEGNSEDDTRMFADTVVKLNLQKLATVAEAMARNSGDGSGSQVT

No constants are given. Whether binding was seen depends on the method and setting. Binding seen in cells or lysates may run through a third protein. Some binding calls cover weakened binding; strength is not graded here. Where a sequence is shown, tags or fusion partners need not be part of it.

Among the targets are GUS-cLUC (UniProt P05804); PYL1-cLUC (Arabidopsis) (UniProt Q8VZS8); PYR1-cLUC (Arabidopsis) (UniProt O49686).
Holding throughout (assay): split reporter; split-luciferase complementation (LCI): CIPK1-nLUC and PYR1/PYLs-cLUC co-injected into N. benthamiana leaves, signal read after 72 h with a CCD camera
The target in test [1] is T1, OST1 (LCI fusion) (Arabidopsis) (UniProt Q940H6).
T1 sequence: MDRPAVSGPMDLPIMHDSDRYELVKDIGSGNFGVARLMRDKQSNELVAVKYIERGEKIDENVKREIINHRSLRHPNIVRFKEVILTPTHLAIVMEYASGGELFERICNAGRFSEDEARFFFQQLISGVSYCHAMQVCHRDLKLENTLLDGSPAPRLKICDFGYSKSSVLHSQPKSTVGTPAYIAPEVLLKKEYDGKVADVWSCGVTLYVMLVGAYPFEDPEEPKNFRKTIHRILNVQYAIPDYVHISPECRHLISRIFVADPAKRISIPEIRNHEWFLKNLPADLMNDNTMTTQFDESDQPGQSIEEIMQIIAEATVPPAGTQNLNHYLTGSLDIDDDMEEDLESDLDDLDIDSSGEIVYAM

For a further test, the target named is T2, PYL11-cLUC (Arabidopsis) (UniProt Q9FJ50).
T2 sequence: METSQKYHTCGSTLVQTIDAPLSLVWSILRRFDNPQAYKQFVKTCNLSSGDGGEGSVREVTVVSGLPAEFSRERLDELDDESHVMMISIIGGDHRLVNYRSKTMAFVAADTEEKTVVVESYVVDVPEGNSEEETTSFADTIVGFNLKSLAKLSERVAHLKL

Another test concerns the target T3, PYL13-cLUC (Arabidopsis) (UniProt Q9SN51).
T3 sequence: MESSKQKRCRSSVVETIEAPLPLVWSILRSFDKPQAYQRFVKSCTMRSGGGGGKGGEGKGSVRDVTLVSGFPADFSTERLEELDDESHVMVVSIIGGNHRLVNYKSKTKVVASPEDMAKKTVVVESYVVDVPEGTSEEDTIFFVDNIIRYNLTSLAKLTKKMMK

The target in another test is T4, PYL2-cLUC (Arabidopsis) (UniProt O80992).
T4 sequence: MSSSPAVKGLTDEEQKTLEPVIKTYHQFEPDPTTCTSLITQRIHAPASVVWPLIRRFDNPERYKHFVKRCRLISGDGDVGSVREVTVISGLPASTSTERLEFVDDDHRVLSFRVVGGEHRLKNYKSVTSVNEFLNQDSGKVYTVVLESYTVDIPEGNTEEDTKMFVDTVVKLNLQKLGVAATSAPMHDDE

The next test concerns the target T5, PYL4-cLUC (Arabidopsis) (UniProt O80920).
T5 sequence: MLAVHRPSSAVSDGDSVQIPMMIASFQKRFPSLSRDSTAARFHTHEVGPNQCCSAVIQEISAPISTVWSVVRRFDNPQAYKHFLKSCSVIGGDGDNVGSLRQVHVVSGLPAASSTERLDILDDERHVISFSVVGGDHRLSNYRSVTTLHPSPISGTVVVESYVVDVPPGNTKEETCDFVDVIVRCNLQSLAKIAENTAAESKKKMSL

The next test concerns the target T6, PYL6-cLUC (Arabidopsis) (UniProt Q8S8E3).
T6 sequence: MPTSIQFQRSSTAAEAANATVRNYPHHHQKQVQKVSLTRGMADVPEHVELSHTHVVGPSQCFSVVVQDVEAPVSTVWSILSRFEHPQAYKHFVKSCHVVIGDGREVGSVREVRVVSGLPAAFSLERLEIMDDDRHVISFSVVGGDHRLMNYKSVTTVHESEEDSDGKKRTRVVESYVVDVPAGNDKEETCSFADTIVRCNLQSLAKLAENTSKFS

For a further test, the target named is T7, PYL7-cLUC (Arabidopsis) (UniProt Q1ECF1).
T7 sequence: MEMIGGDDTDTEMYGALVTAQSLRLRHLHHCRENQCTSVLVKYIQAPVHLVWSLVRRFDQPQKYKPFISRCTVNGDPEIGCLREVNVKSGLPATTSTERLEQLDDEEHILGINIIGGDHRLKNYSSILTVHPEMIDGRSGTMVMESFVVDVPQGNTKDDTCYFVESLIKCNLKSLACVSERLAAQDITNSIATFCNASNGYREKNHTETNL

The next test deals with T8, PYL9-cLUC (Arabidopsis) (UniProt Q84MC7).
T8 sequence: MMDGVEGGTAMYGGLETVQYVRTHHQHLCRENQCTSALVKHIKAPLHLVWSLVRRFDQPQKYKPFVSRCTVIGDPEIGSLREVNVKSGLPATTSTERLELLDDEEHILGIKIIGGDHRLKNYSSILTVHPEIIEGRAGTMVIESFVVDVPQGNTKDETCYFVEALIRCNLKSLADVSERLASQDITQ

B1: CIPK1-nLUC (enzyme, UniProt Q8RWC9 1-444)
chain: MVRRQEEEKKAEKGMRLGKYELGRTLGEGNFGKVKFAKDTVSGHSFAVKIIDKSRIADLNFSLQIKREIRTLKMLKHPHIVRLHEVLASKTKINMVMELVTGGELFDRIVSNGKLTETDGRKMFQQLIDGISYCHSKGVFHRDLKLENVLLDAKGHIKITDFGLSALPQHFRDDGLLHTTCGSPNYVAPEVLANRGYDGAASDIWSCGVILYVILTGCLPFDDRNLAVLYQKICKGDPPIPRWLSPGARTMIKRMLDPNPVTRITVVGIKASEWFKLEYIPSIPDDDDEEEVDTDDDAFSIQELGSEEGKGSDSPTIINAFQLIGMSSFLDLSGFFEQENVSERRIRFTSNSSAKDLLEKIETAVTEMGFSVQKKHAKLRVKQEERNQKGQVGLSVTAEVFEIKPSLNVVELRKSYGDSCLYRQLYERLLKDVGTSSPEQEIVT
For B1, the binding entry was “no binding” with GUS-cLUC; “no binding” in [1]; “binds” in the test with PYL1-cLUC (Arabidopsis); “no binding” in the test with PYL11-cLUC (Arabidopsis); “no binding” with PYL13-cLUC (Arabidopsis); “binds” with PYL2-cLUC (Arabidopsis). For the same molecule, the binding result in the test with PYL4-cLUC (Arabidopsis) is “binds”; in the test with PYL6-cLUC (Arabidopsis), “binds”; with PYL7-cLUC (Arabidopsis) it was “no binding”; in the test with PYL9-cLUC (Arabidopsis), “no binding”; with PYR1-cLUC (Arabidopsis), “binds”.
